Source: article PMC4336329 (PLoS ONE, 2015)
Out of some 310,000 compounds screened, about 14,000 (4.5%) showed an effect of 50% or more. Effects have a minus sign here. The list shows a part of the results.

What follows are compounds tested against human ether-à-go-go-related gene (hERG) potassium channel (human, UniProt Q12809) (assay: primary screen, population patch clamp on CHO cells stably expressing hERG).
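Also: peak tail current of the secondary pulse compared with the same well before compound.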

Chain of human ether-à-go-go-related gene (hERG) potassium channel (Q12809 whole entry, looked up): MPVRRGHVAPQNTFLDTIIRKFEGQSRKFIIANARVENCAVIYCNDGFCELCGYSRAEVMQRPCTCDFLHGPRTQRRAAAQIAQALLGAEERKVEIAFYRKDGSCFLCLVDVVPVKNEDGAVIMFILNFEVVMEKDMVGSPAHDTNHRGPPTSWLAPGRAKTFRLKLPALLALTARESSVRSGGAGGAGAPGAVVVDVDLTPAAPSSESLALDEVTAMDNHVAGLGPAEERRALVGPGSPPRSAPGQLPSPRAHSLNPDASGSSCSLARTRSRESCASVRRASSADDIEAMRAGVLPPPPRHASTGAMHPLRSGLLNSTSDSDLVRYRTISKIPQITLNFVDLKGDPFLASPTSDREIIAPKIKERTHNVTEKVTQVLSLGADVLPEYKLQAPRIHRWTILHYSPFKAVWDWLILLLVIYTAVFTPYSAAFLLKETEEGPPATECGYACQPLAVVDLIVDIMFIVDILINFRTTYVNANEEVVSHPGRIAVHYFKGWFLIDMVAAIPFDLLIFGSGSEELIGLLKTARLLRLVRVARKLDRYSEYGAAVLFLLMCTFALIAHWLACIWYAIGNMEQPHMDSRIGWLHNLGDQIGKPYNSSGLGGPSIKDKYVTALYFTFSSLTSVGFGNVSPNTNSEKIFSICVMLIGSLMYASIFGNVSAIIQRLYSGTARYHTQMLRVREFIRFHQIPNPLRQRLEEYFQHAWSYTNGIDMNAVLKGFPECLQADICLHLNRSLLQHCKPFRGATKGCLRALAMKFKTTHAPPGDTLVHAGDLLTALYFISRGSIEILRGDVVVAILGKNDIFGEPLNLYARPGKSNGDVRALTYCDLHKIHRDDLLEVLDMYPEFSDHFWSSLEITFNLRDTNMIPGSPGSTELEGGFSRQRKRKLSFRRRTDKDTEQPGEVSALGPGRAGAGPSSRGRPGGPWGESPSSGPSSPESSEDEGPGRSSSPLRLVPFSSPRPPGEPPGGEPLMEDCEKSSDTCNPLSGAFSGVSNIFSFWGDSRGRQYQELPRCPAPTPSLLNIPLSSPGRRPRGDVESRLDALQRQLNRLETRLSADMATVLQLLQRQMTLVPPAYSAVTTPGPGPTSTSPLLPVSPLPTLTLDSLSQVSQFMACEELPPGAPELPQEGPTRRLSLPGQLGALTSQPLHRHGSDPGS

Row | SMILES | hERG current change (%, negative = inhibition) at 10uM [%]
1 | CCN(CC)S(=O)(=O)c1ccc(OC)c(NS(=O)(=O)c2ccc(F)cc2)c1 | -10.5
2 | COc1ccc(OCCC(=O)OCC(=O)Nc2cccc(Br)c2)cc1 | -5.88
3 | COc1ccc(CCN2CC(C(=O)N(C)Cc3ccccc3OC)CCC2=O)cc1 (stereo not shown) | -29.4
4 | Nc1cc(-c2ccncc2)c[nH]c1=O | 7.48
5 | O=C(N/N=C/C(Br)=C/c1ccccc1)c1cc(-c2ccco2)[nH]n1 | 6.3
6 | COC(=O)c1ccc(C2NC(=S)N(c3ccccc3)C(C)=C2C(=O)Nc2ccccc2OC)cc1 (stereo not shown) | 2.97
7 | CCCNC(=O)NC(=O)CSc1nnc(C)n1N | 15
8 | COCCN(Cc1nc2ccccc2c(=O)[nH]1)C(=O)COc1c(C)cc(Cl)cc1C | 4.32
9 | CCCCCCn1cc(C(=O)OCC)c(=O)c2cc(F)c(F)cc21 | -52.6
10 | Cc1ccc2nc3sc(C(=O)Nc4c(C)[nH]c(=O)[nH]c4=O)c(N)c3cc2c1 | -0.392
11 | COc1cc(OC)c(NC(=S)Nc2cc(Cl)cc(Cl)c2)cc1Cl | 15
12 | CCOC(=O)N1CCN(C(=O)COc2ccc(Cl)c(C)c2)CC1 | -7.42
13 | O=C(CCCOc1ccc(Cl)cc1Cl)Nc1nnc(C2CC2)s1 | 14
14 | CCc1ccc(NC(=O)CCc2nc3ccccc3[nH]2)cc1 | -1.85
15 | Cc1ccc2c(CN3CCCc4ccccc43)cc(=O)oc2c1C | 13.3
16 | CSc1ccccc1NC(=O)C1C2CCC(C2)C1C(=O)O (stereo not shown) | 13.4
17 | Cc1nn(Cc2ccccc2Cl)c2sc(C(=O)Nc3ccccc3N3CCOCC3)cc12 | 0.337
18 | O=S(=O)(Nc1nc2ccccc2nc1N1CCN(CCO)CC1)c1cc(F)ccc1F | -0.0855
19 | CCN=C1Sc2nc3ccc(OCC)cc3cc2CN1CCOC.Cl | -43.1
20 | COc1ccc(N2CCN(S(C)(=O)=O)CC2)cc1 | 14.1
21 | Cc1cc(C)cc(NCc2cc(=O)oc3cc(C)c(O)cc23)c1 | 21.3
22 | COc1cc(CN2CCN(c3ccccc3C)CC2)cc([N+](=O)[O-])c1O | 2.78
23 | COc1ccc(C2CC2C(C)=O)cc1 (stereo not shown) | 17.6
24 | CC(=O)N1[C@H](Cc2ccccc2)C=C[C@]1(C)C(=O)NCCN1CCOCC1 | 13.1
25 | COC(=O)c1c(S(=O)(=O)NCc2ccccc2)sc(C(=O)O)c1C | 6.81
